# Experimental data from the supplement of paper PMC8728848.
# Some of the results follow.
# Tests used:
# Test in all cases: glycan array binding signal (z-score within array); higher = stronger binding
# Details in all cases: glycan notation: IUPAC condensed, linker removed; mutation: E227G
# [1] = biological target: GlcNAc(b1-3)Gal(b1-4)GlcNAc(b1-3)Gal(b1-4)GlcNAc(b1-3)Gal(b1-4)GlcNAc(b1-3)Gal(b1-4)GlcNAc(b1-2)[GlcNAc(b1-3)Gal(b1-4)GlcNAc(b1-3)Gal(b1-4)GlcNAc(b1-3)Gal(b1-4)GlcNAc(b1-3)Gal(b1-4)GlcNAc(b1-6)]Man(a1-6)[GlcNAc(b1-3)Gal(b1-4)GlcNAc(b1-3)Gal(b1-4)GlcNAc(b1-3)Gal(b1-4)GlcNAc(b1-3)Gal(b1-4)GlcNAc(b1-2)Man(a1-3)]Man(b1-4)GlcNAc(b1-4)[Fuc(a1-6)]GlcNAc
# How it was run: (§1)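 Glycan array data were curated from 3228 arrays in the Consortium for Functional Glycomics database and kept only where the protein sequence was available. Glycan names were converted to IUPAC-condensed notation, and columns mapping to the same glycan were averaged. The binding signal is a within-array Z-score, averaged across arrays of the same protein sequence at different concentrations or buffers and across linkers. Negative Z-scores can be read as non-binding.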
# [2] = biological target: GlcNAc(b1-3)Gal(b1-4)GlcNAc(b1-3)Gal(b1-4)GlcNAc(b1-3)GalNAc
# How it was run: as §1
# [3] = biological target: GlcNAc(b1-3)Gal(b1-4)GlcNAc(b1-3)GalNAc
# How it was run: as §1
# [4] = biological target: GlcNAc(b1-3)Gal(b1-4)GlcNAc(b1-3)[GlcNAc(b1-3)Gal(b1-4)GlcNAc(b1-3)]GalNAc
# How it was run: as §1
# [5] = biological target: GlcNAc(b1-3)Gal(b1-4)GlcNAc(b1-6)[Gal(b1-3)]GalNAc
# How it was run: as §1
# [6] = biological target: GlcNAc(b1-3)Gal(b1-4)GlcNAc(b1-6)[GlcNAc(b1-3)Gal(b1-3)]GalNAc
# How it was run: as §1
# [7] = biological target: GlcNAc(b1-3)Gal(b1-4)GlcNAc(b1-6)[GlcNAc(b1-3)]Gal(b1-4)GlcNAc
# How it was run: as §1
# GlcNAc(b1-3)GalNAc = biological target: GlcNAc(b1-3)GalNAc
# How it was run: as §1
# GlcNAc(b1-3)Man = biological target: GlcNAc(b1-3)Man
# How it was run: as §1
# [8] = biological target: GlcNAc(b1-3)[GlcNAc(b1-4)][GlcNAc(b1-6)]GlcNAc
# How it was run: as §1
# [9] = biological target: GlcNAc(b1-3)[GlcNAc(b1-6)]Gal(b1-4)GlcNAc
# How it was run: as §1
# [10] = biological target: GlcNAc(b1-3)[GlcNAc(b1-6)]GalNAc
# How it was run: as §1
# [11] = biological target: GlcNAc(b1-4)Gal(b1-4)GlcNAc
# How it was run: as §1
# GlcNAc(b1-4)GlcNAc = biological target: GlcNAc(b1-4)GlcNAc
# How it was run: as §1
# [12] = biological target: GlcNAc(b1-4)GlcNAc(b1-4)GlcNAc
# How it was run: as §1
# [13] = biological target: GlcNAc(b1-4)GlcNAc(b1-4)GlcNAc(b1-4)GlcNAc(b1-4)GlcNAc
# How it was run: as §1
# [14] = biological target: GlcNAc(b1-4)GlcNAc(b1-4)GlcNAc(b1-4)GlcNAc(b1-4)GlcNAc(b1-4)GlcNAc
# How it was run: as §1
# [15] = biological target: GlcNAc(b1-4)[GlcNAc(b1-6)]GalNAc
# How it was run: as §1
# [16] = biological target: GlcNAc(b1-6)Gal(b1-4)GlcNAc
# How it was run: as §1
# GlcNAc(b1-6)GalNAc = biological target: GlcNAc(b1-6)GalNAc
# How it was run: as §1
# [17] = biological target: GlcNAc6S(b1-3)Gal(b1-4)GlcNAc
# How it was run: as §1
# Kdn(a2-3)Gal(b1-3)GalNAc = biological target: Kdn(a2-3)Gal(b1-3)GalNAc
# How it was run: as §1
# Kdn(a2-3)Gal(b1-3)GlcNAc = biological target: Kdn(a2-3)Gal(b1-3)GlcNAc
# How it was run: as §1
# Kdn(a2-3)Gal(b1-4)Glc = biological target: Kdn(a2-3)Gal(b1-4)Glc
# How it was run: as §1
# Kdn(a2-3)Gal(b1-4)GlcNAc = biological target: Kdn(a2-3)Gal(b1-4)GlcNAc
# How it was run: as §1
# [18] = biological target: Kdn(a2-3)Gal(b1-4)[Fuc(a1-3)]GlcNAc
# How it was run: as §1
# Kdn(a2-6)Gal(b1-4)GlcNAc = biological target: Kdn(a2-6)Gal(b1-4)GlcNAc
# How it was run: as §1
# [19] = biological target: Man(a1-2)Man(a1-2)Man(a1-3)Man
# How it was run: as §1
# [20] = biological target: Man(a1-2)Man(a1-2)Man(a1-6)[Man(a1-3)]Man
# How it was run: as §1
# Man(a1-2)Man(a1-3)Man = biological target: Man(a1-2)Man(a1-3)Man
# How it was run: as §1
binder,measurement,setting,value
"Epa1-NP-mutant-E227G (Candida glabrata), Q6VBJ0 (protein) MILNPALFLNKCVCIYTTLILLLLTNGGYATSSNDISLASKDPTTFPLGCSPDITTPKKGLSMELYSYDFRKKGSYPCWDAAYLDPNYPRTGYKSHRLLAKVDGVTGNINFYYHATKGCTPQLGHLPASYNYPKPLTMTNFTMLLYGYFRPKVTGFHTFTISADDLLFVNFGAGNAFDCCRRDSSADHFGNYQAYAIWGSKTAKDELTVHLDAGVYYPIRLFYNNRGYDGALSFTFKTESNENTVSDFSEYFFSLDDTEEGCPGLISYDSSCASVKTSKIIGIDYHTETPNENLVPITKTIYHLGIPCTGTTTTPLCGSGFYDPLANKCVTINTSSTSSVTKTTSHTTSKEVSFHSSISSQKTLIPKSIPSPYGPIKSQSIPTEMETSSEISSSEYAFSDVISTPSHSPYTKKHSSLNSSSYTSTVIHSLTSYSISQGIFSTSLSEQNITSKSSTDKFSTATSMSNNITQSSIIISQFSTNNENYTTTSMHTSSDKISTETLNNSISTTTSILFSNSSTILKNNTTIISSDKDTHYHPVNPTIVCSTNKTEIICASITQPSISNSNNHWSSSVLKFNSTTVRSTLPSSAGSNETSINVPFSSSTESNTSTSSTSTSNSKMVRSTLPSSAGSNETSISVPFSSSTESNTSTSSTSTSNSKMVRSTLPSSAGSNETSINVPFSSSTESNTSTSSTSTSNSKTVRSTPFSSAGIIMTSLSQRNNKSASSYASSNSKCYNTADSCRKVHSTPSYLLTSSYTSEGVDYDCSLVSTKLKINDTNCVNNKHTTKSCLKTSVTTTIPTLEIKTARKSSSNTIGLHSYPTSSPNKSISSAPIIGYISSFKTIKTASPSYQTSDLTTITTITSLNNPGSTAVENTHESNDKSRKTSSNDISSKHSVIKETKDAVESSNKSHQTNTLKCSSIIIASSSHNSYESLGGTTLTLTLSKVYSPQNNDTLPFLEISEVNPSRTVLPESSKMMQYLTSTEERNKTARNTIATNIVSISTFHFEGEGNAIRMGYTQLLLMLIGIIVMNIGT",glycan array binding signal (z-score),[1],0.017
same,glycan array binding signal (z-score),[2],-0.04
same,glycan array binding signal (z-score),[3],-0.16
same,glycan array binding signal (z-score),[4],-0.019
same,glycan array binding signal (z-score),[5],-0.16
same,glycan array binding signal (z-score),[6],-0.182
same,glycan array binding signal (z-score),[7],-0.203
same,glycan array binding signal (z-score),GlcNAc(b1-3)GalNAc,-0.223
same,glycan array binding signal (z-score),GlcNAc(b1-3)Man,-0.146
same,glycan array binding signal (z-score),[8],-0.244
same,glycan array binding signal (z-score),[9],-0.101
same,glycan array binding signal (z-score),[10],-0.133
same,glycan array binding signal (z-score),[11],-0.157
same,glycan array binding signal (z-score),GlcNAc(b1-4)GlcNAc,-0.168
same,glycan array binding signal (z-score),[12],-0.161
same,glycan array binding signal (z-score),[13],-0.177
same,glycan array binding signal (z-score),[14],-0.273
same,glycan array binding signal (z-score),[15],-0.137
same,glycan array binding signal (z-score),[16],-0.168
same,glycan array binding signal (z-score),GlcNAc(b1-6)GalNAc,-0.071
same,glycan array binding signal (z-score),[17],-0.129
same,glycan array binding signal (z-score),Kdn(a2-3)Gal(b1-3)GalNAc,-0.163
same,glycan array binding signal (z-score),Kdn(a2-3)Gal(b1-3)GlcNAc,-0.106
same,glycan array binding signal (z-score),Kdn(a2-3)Gal(b1-4)Glc,-0.2
same,glycan array binding signal (z-score),Kdn(a2-3)Gal(b1-4)GlcNAc,-0.116
same,glycan array binding signal (z-score),[18],-0.097
same,glycan array binding signal (z-score),Kdn(a2-6)Gal(b1-4)GlcNAc,-0.132
same,glycan array binding signal (z-score),[19],-0.219
same,glycan array binding signal (z-score),[20],0.039
same,glycan array binding signal (z-score),Man(a1-2)Man(a1-3)Man,-0.146
